Experimental findings from PubChem BioAssay AID488969 (Vanderbilt High Throughput Screening Facility, 2010) are described below.

In all, about 110,000 compounds were measured (“z-score”: median about -0.1, highest 2% from about 2 on). This is one part of the list. Activity calls are given as the source filed them.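 How the source made its calls: active means z-score in the third read window above 3 or below -3; inactive means the rest.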

The experiment concerns the target Metabotropic glutamate receptor 8 (Rattus norvegicus) (UniProt P70579). The experiment is described as follows: rat mGluR8 modulators via GIRK flux, primary screen, cell-based, thallium flux, HTS (AID 488969). To be noted: HEK293 rat mGluR8, GIRK (G protein-gated inwardly rectifying potassium channel) thallium flux, FluoZin2; at 10 µM; stronger effect = higher value; submaximal glutamate (EC20) added with thallium.
UniProt P70579, sequence (P70579 whole entry, looked up): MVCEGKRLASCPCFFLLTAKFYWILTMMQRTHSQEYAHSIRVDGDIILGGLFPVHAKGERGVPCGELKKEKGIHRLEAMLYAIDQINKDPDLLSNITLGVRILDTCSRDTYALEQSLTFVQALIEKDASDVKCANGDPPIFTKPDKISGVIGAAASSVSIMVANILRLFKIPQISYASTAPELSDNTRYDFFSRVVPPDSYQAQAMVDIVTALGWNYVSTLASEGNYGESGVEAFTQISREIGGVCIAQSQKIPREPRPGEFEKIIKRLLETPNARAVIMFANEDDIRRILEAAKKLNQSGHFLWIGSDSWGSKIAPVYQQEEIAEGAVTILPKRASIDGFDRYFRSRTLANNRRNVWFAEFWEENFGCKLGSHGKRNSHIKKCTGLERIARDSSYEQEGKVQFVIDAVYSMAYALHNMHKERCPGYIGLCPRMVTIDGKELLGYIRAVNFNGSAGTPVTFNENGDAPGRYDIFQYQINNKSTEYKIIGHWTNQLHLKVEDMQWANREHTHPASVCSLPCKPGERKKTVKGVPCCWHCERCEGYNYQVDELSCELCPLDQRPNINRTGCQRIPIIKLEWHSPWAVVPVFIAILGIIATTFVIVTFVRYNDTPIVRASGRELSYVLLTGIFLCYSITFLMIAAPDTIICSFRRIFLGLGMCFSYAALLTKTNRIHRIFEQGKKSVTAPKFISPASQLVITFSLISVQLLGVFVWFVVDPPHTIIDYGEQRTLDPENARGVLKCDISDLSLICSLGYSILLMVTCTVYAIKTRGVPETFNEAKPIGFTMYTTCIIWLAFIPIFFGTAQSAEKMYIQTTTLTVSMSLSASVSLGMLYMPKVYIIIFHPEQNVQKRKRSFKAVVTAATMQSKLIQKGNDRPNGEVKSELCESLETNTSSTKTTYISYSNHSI
In turn, `C/C(=N\NC(=O)COc1ccc([N+](=O)[O-])cc1)C(C)(C)C` gave a z-score of -0.0988.

With `O=C(CSc1nnc(CN2CCCCC2)n1-c1ccccc1)c1ccc2c(c1)OCO2`, the z-score is -0.152.

`COc1cc(OC)cc(C(=O)N[C@H](C(=O)OCC(N)=O)C(C)C)c1` returned a z-score of -0.131.

`Cc1cc(C)n(CC(O)Cn2cnc3c2c(=O)n(C)c(=O)n3C)n1` (centres undefined) had a z-score of -0.156.

As for `O=C(CN1CCOCC1)N1CCN(C(=O)CN2CCOCC2)CC1`, the z-score was -0.434.

Turning to `Cc1cc(C)n2c(Nc3ccc4c(c3)OCCO4)c(-c3ccccc3)nc2n1`, the z-score is -1.03.

Regarding `COc1cccc(OC)c1C(=O)NC(=S)N1CCN(c2ccc(C(F)(F)F)cc2[N+](=O)[O-])CC1`, the z-score was determined as 0.046.

For the molecule `O=C(O)CC(Cc1ccccc1)C(=O)Nc1ccc([N+](=O)[O-])cc1` (centres undefined), the z-score was 0.0189.

As for `CCOC(=O)c1nn(-c2ccccc2)c(C#N)c1NC(=O)c1nn(CC)cc1Br`, the z-score was -1.51.

`CC(=O)c1cccc(NC(=O)Nc2cccnc2)c1` yielded a z-score of 0.308.

As to `Cc1ccc(NC(=O)CSc2nnc(Cc3cccn3C)n2-c2ccc(F)cc2)cc1`, the z-score was found to be 0.6.

With `Cc1ccc(C)c(S(=O)(=O)N2CCN(C(=O)Cn3c(C(F)(F)F)nc4ccccc43)CC2)c1`, the z-score is -0.0506.

`COc1ccc(N2C(=O)C3CCCN3C2c2cc(OC)c(OC)cc2OC)cc1` (centres undefined): the z-score is 0.128.

`COc1ccc(Nc2cc(C)nc3ccccc23)cc1` registered a z-score of 2.44.

`Nn1cc(-c2ccccc2)nc1SCC(=O)N1CCN(S(=O)(=O)c2ccc3ccccc3c2)CC1` yielded a z-score of 0.37.

`CCC(C)(C)NC(=O)C(c1cccn1C)N(Cc1ccccc1)C(=O)Cn1nnc2ccccc21` (centres undefined) gave a z-score of -0.00609.

The molecule `COc1ccc(OC)c(NC(=O)CSc2nnc(Cn3nnc4ccccc43)n2C)c1` returned a z-score of -0.116.

Consider `CS(=O)(=O)N(CC(=O)NC1CC1)C1CCCCC1`, for which the z-score was -0.374.

`CCOC(=O)N1CCC(NC(=O)c2sc(-n3cccc3)nc2C)CC1` yielded a z-score of -0.417.

Take `COc1cccc(C2=CC(c3cccc(OC)c3OC(F)F)n3nnnc3N2)c1` (centres undefined): the z-score is 1.27.

Turning to `O=C(C1CC1)N1CCc2cc(S(=O)(=O)N(CCO)Cc3ccccc3)ccc21`, the z-score was -0.0768.

Turning to `O=C(CCCCCN1C(=O)c2ccccc2C1=O)Nc1ccc2c(c1)OCCO2`, the z-score is -0.289.

For the molecule `Cc1nnc(SCC(=O)NC2CCCCC2)n(N)c1=O`, the z-score is -0.389.

`N#Cc1nc(-c2ccc(OCc3ccccc3Cl)cc2)oc1NCCCn1ccnc1` returned a z-score of 0.43.

`Cc1cc([N+](=O)[O-])ccc1NCc1ccccc1` came in with a z-score of -0.481.

Take `Cc1c(Cl)cccc1NC(=O)CCN1CCCCC1`: the z-score was -0.0598.

Turning to `CCCCN1CN(S(=O)(=O)c2cccs2)c2nc3ccccc3nc21`, the z-score is 0.284.

In turn, `Cc1cccc(/C=C/C(=O)c2cc(Br)ccc(=O)c2O)c1` returned a z-score of 2.75.

For `CC(C)(C)c1ccc(OCC(=O)O)cc1`, the z-score turned out to be 0.0593.

Molecule `CC(=O)NC1C(OCc2ccccc2)OC(COC(C)=O)C(OC(C)=O)C1OC(C)=O` (centres undefined) returned a z-score of 0.186.

Regarding `O=[N+]([O-])c1ccc(S(=O)(=O)Nc2ccc(-c3csc(-c4ccccc4)n3)cc2)cc1`, the z-score is -0.169.

`Cc1ccc(S(=O)(=O)c2cc(N3CCOCC3)nc(-c3ccccc3)n2)cc1` had a z-score of 0.349.

On to `CCOc1ccccc1C(=O)Nc1cc(C(=O)NCCc2ccccc2)ccc1Cl`, for which the z-score was -0.0618.

In turn, `CN(C(=O)c1ccc(NC(=O)C2CC=CCC2C(=O)O)cc1)c1ccccc1` (centres undefined) came in with a z-score of 0.0801.

In the case of `CC(OC(=O)Cc1coc2cc3c(cc12)CCC3)C(=O)NCc1ccc2c(c1)OCO2` (centres undefined), the z-score worked out at 0.706.

On to `Nc1nonc1C(=Nc1ccccc1)NO`, for which the z-score is -0.164.

Take `Cc1ccnc(SCc2cc(=O)c(OC(=O)c3ccco3)co2)n1`: the z-score is -0.256.

`CN(C)S(=O)(=O)NC(c1ccccc1)c1ccccc1`: the z-score worked out at 0.199.

`O=C(N1CCCCC1)N1CCCN(C(=O)N2CCCCC2)CC1` showed a z-score of 0.845.

Regarding `CCn1c(COc2ccc3c(c2)CCCC3)nnc1SCC(=O)Nc1nccs1`, the z-score came out at 0.066.

`Cc1nn(CC(=O)Nc2ccccn2)c(=O)c2ccccc12` returned a z-score of -0.242.

For the molecule `Cc1ccc(C(C(=O)NCC2CCCO2)N(Cc2ccccc2F)C(=O)Cn2nnc(-c3cccs3)n2)cc1` (centres undefined), the z-score was -0.157.

With `COCCSc1ccccc1C(=O)Nc1ccc2c(c1)OCCO2`, the z-score was 0.3.

In turn, `CCOc1ccc(C2SCC(=O)N2c2c(C)n(C)n(-c3ccccc3)c2=O)cc1` (centres undefined) displayed a z-score of 0.918.

As to `O=C1c2ccccc2-c2onc3ccc(Oc4ccccc4)c1c23`, the z-score is -0.193.

As for `COC(=O)c1ccc(S(=O)(=O)NNC(=O)COc2ccc(C)cc2)cc1`, the z-score is 0.426.

Take `Cc1ccc(C(=O)CSc2ncnc3sc4c(c23)CCC(C)C4)cc1` (centres undefined): the z-score was determined as 0.974.

Molecule `O=C(CSc1nnc(Cc2cccs2)n1Cc1ccco1)Nc1cc(Cl)cc(Cl)c1` came in with a z-score of 0.0549.

`COc1ccc(NC(=O)CCc2ccccc2)cc1NC(=O)c1ccco1` returned a z-score of -0.225.

`CC(C)(C)c1ccc(S(=O)(=O)N2CCCC2C(=O)NC2=NCCS2)cc1` (centres undefined) yielded a z-score of 0.241.

In the case of `Cc1ccccc1Nc1nnc(SCC(=O)NC2CCCc3ccccc32)s1` (centres undefined), the z-score is -0.382.

Turning to `Fc1ccc(N2CCN(Cc3cnc(Oc4ccc(Br)cc4)s3)CC2)cc1`, the z-score worked out at 0.648.

`O=C(COC(=O)[C@H](Cc1ccccc1)NS(=O)(=O)c1ccccc1F)NC1CCCCC1` had a z-score of -0.525.

`COc1cc(NC(=O)COc2cccc(OC)c2)cc(OC)c1` returned a z-score of 0.638.

In turn, `S=C(NCCc1ccccc1)N/N=C/c1ccccc1Cl` registered a z-score of 0.283.

`CC1(C)Cc2ccccc2-c2c1c(=O)n(Cc1ccccc1)c1nnnn21` yielded a z-score of 0.0459.

Molecule `Cc1cc(NC(=O)CSc2ccc3nnc(-c4cccs4)n3n2)no1` gave a z-score of -0.611.

In turn, `O=C(O)CCC(=O)N1CC=C(c2ccccc2)CC1` had a z-score of -0.42.

`COc1ccc(-c2cc(C(=O)NC(C)C)no2)cc1` yielded a z-score of -0.699.

Consider `Cc1cc(C)c(N(C(=O)Cn2nnc3ccccc32)C(C(=O)NC(C)(C)C)c2ccsc2)c(C)c1` (centres undefined), for which the z-score is -0.119.

Take `CS(=O)(=O)c1ccc(Cl)c(S(=O)(=O)NCc2ccccc2)c1`: the z-score was 0.117.

Molecule `CCOc1ccc(C(=O)NCC(=O)OCc2cc(C(C)=O)ccc2OC)cc1` displayed a z-score of -0.3.

For the molecule `O=C(NCc1ccccc1)C(=O)NCC1COc2ccccc2O1` (centres undefined), the z-score was determined as 0.58.

Regarding `COc1cccc(CC(=O)Nc2ccc3nc(C)sc3c2)c1`, the z-score is -0.206.

As for `CC(=O)c1sc(Nc2nc3ccc(F)cc3s2)nc1C`, the z-score worked out at 0.302.

Molecule `Cc1cccc(-n2cnc(C(=O)Nc3cccnc3)c2)n1` gave a z-score of 0.694.

On to `O=C1C2CC=CCC2C(=O)N1c1ncn[nH]1` (centres undefined), for which the z-score was -0.102.

Molecule `CCc1ccc(N2CC(C(=O)NCc3ccc4c(c3)OCO4)CC2=O)cc1` (centres undefined) showed a z-score of -0.18.

As to `COc1cc(OC)cc(-c2nc3ccccc3c(=O)o2)c1`, the z-score is -0.0482.

With `C=CCn1c(COc2ccccc2F)nnc1SCC(=O)Nc1cc2oc3ccccc3c2cc1OC`, the z-score is 0.0078.

On to `O=C(NN=C1CCN(Cc2ccccc2)CC1)c1cc2ccccc2cc1O`, for which the z-score came to 0.155.

`O=C(Cn1nnc(-c2ccccc2F)n1)Nc1ccc(C(=O)N2CCOCC2)cc1`: the z-score is -0.416.

`Cc1ccc2nc(-c3ccc(NC(=O)COC(=O)c4ccc(=O)[nH]c4)cc3)sc2c1` registered a z-score of 0.666.

Regarding `CN(C(=O)COc1cc(=O)n(C)c2ccccc12)c1ccc(Cl)cc1`, the z-score came out at 1.04.

Turning to `CCOC(=O)N1CCC(N(C(=O)Nc2ccc(Cl)c(Cl)c2)C(C)CC)CC1` (centres undefined), the z-score is -0.099.

The molecule `CC(NC(=O)/C(C#N)=C/c1ccc(Cl)c([N+](=O)[O-])c1)c1ccccc1` (centres undefined) showed a z-score of -0.278.

Take `O=C(OC1CCN(c2ncc(C(F)(F)F)cc2Cl)CC1)c1cccc(C(F)(F)F)c1`: the z-score was 0.0627.

In turn, `O=C(CSc1nnc(SCc2ccccc2)s1)N/N=C/C=C/c1ccco1` had a z-score of -0.182.

`Cc1ccc2nc(N(CCN(C)C)C(=O)c3cc(Cl)sc3Cl)sc2c1` yielded a z-score of 0.124.

Molecule `COC(=O)c1ccccc1NC(=O)CSc1n[nH]c(C)n1` displayed a z-score of -0.104.

`Oc1ccc(/C=N/Nc2cc(N3CCCC3)nc(N3CCCC3)n2)cc1O`: the z-score was -0.294.

`CCCNC(=O)NCCc1c(C)[nH]c2ccccc12`: the z-score is -0.0503.

With `COc1ccccc1C(=O)NCc1ccc(-c2nc3ccccc3s2)cc1`, the z-score was -0.239.

Molecule `COC(=O)c1cccc(NC(=O)Cc2ccc(OC)cc2)c1C` displayed a z-score of 0.303.

`OCCOCCNc1ncnc2c1cnn2-c1ccc(Cl)cc1`: the z-score amounted to 0.264.

For `CCCNC(=O)C(CC)NS(=O)(=O)c1ccc(OC)cc1` (centres undefined), the z-score was -0.865.

For `COc1ccc(Cl)cc1C(=O)CSc1nnnn1C1CCCC1`, the z-score is active: 7.32.

`CCCCC(CC)CNC(=O)c1[nH]c(C)c(C(C)=O)c1C` (centres undefined) gave a z-score of 0.339.

Molecule `Cc1ccccc1NC(=O)Cn1cnc2c(oc3ccccc32)c1=O` gave a z-score of -0.113.

`Cc1cc(=O)oc(C)c1C(=O)OCC(=O)c1ccc2ccccc2c1` gave a z-score of -0.249.

Turning to `CCCc1cc(=O)oc2cc(OCc3ccc(OC)cc3)c(Cl)cc12`, the z-score was -0.084.

The molecule `CCOC(=O)CSc1nnc(-c2cccs2)n1-c1ccccc1` returned a z-score of -0.939.

Turning to `CC(C)C1Cc2c(sc3c2c(=O)n(Cc2ccccc2)c2nncn32)CO1` (centres undefined), the z-score is active: -3.44.

The molecule `CSCC[C@H](NC(=O)Nc1cccc(C(F)(F)F)c1)C(=O)O` came in with a z-score of -0.23.

Consider `CC1CCC/C(=C(\C#N)c2nc(-c3cc4ccccc4oc3=O)cs2)C1` (centres undefined), for which the z-score worked out at 0.525.

Molecule `Cc1ccc2[nH]c(=O)c(CN(CCCO)S(=O)(=O)c3c(C)ccc4nsnc34)cc2c1` yielded a z-score of 0.0145.

Consider `CC(C)(C)N(C=C(Cl)Cl)C(=O)NC1CCCCC1`, for which the z-score turned out to be 1.18.

With `CCCOC(=O)CSc1nc(N)c(C#N)c(CC)c1C#N`, the z-score came to 0.792.

In turn, `Cc1ccc(C(=O)OCCN2CCN(c3ncc(C(F)(F)F)cc3Cl)CC2)cc1` registered a z-score of 0.0566.

`Cc1ccc(-c2nc(CSCC(=O)Nc3cc(C)on3)c(C)o2)cc1` came in with a z-score of -0.707.

Take `Cc1ccc(-c2noc(CSc3ccccc3)n2)cc1`: the z-score was 0.377.

Molecule `CCC(=O)Oc1ccc(C(=O)Nc2c[nH]c(=O)[nH]c2=O)cc1` displayed a z-score of -0.234.

On to `CC(C(=O)O)C1SC(=O)NC1=O` (centres undefined), for which the z-score turned out to be 0.297.

Molecule `O=S(=O)(NC1CCCCC1Oc1ccccc1)c1ccccc1` (centres undefined) had a z-score of -0.656.

`CC(=O)N1CCC(N(CCN2CCOCC2)C(=O)Nc2ccc(Cl)c(Cl)c2)CC1` yielded a z-score of -0.368.

Take `CC(NC(=O)COC(=O)c1ccc2c(c1)S(=O)(=O)N=C1CCCCCN12)C12CC3CC(CC(C3)C1)C2` (centres undefined): the z-score was 0.243.

The molecule `CC1=C(C(=O)Nc2ccccc2C)C(c2cccs2)NC(=S)N1` (centres undefined) registered a z-score of -0.323.

`O=C(Nc1ccccc1)Nc1ccc(Br)c(Cl)c1` gave a z-score of 0.1.

In turn, `O=C(CSc1nccc(=O)[nH]1)N1CCc2ccccc2C1` gave a z-score of -0.246.
